{
  "source": "paper PMC12136788",
  "binders": {"B1": {"name": "chr14:66209396:66209397:-_ENSMUSG00000022031_ENSMUST00000022609|mus_hu|FALSE|FALSE (ssRNA)", "RNA": "GGGAGUUCUACAGUCCGACGAUCAGAUCGAUGUCUUUCCCCUGCUCGUGGGCUUCAAUCAGUUGUUUAAUAACAUCUCCUAUAGUCAGCAUCAUCAGCUCAGCAGGGCUGAGAUCUCCAGACUAUGGAGGAUUCACCACCAGACAACAGAGGAUUGAGCAUCA"}, "B2": {"name": "57735978_57736098_412_3pUTR_ENSG00000053770_ENST00000261558|human|control|control (ssRNA)", "RNA": "GGGAGUUCUACAGUCCGACGAUCUCUCACGGUGCCACAAAGUGGAGUUCCCGGUUCGUGGCUUAUGAGCCACACUGCCCGCUGCGCCAUGGUUAAGUCAGUAAAGCAUUAGCUCAUCUCAUAAUUAAGGUCGCCACCGAGGAACAACAGAGGAUUGAGCAUCA"}, "B3": {"name": "chr6:30401018:30401019:+_ENSMUSG00000029775_ENSMUST00000068259|mus_hu|FALSE|FALSE (ssRNA)", "RNA": "GGGAGUUCUACAGUCCGACGAUCGAUGAUGUUUUAAUUUCUAGAAUAUUGUAUGACAUGGAACUAUUCAGAAUUCCUUUAAAAAGGAAUCUGUCUUGAUUAAUAACAUUAUUAAGGUACUUUCAGGCUUUCCCUUAACUCCAUCAACAGAGGAUUGAGCAUCA"}, "B4": {"name": "chr14:89307221:89307222:+_ENSG00000165533_ENST00000346301|hu_mus|hu_hu_hu_mus_False|88_108 (ssRNA)", "RNA": "GGGAGUUCUACAGUCCGACGAUCUCCUGUCUGAUUAGUGCCAGGGAGUUUCAAAGAUGUGCCAGGGCGUGGGACCUGAGCAAUAGCAUUUUCAUCCAGGAUCAUUUCAGCAAUUCCUUCCUGGUCCACAUCAAUUUCAUCUAUCAACAGAGGAUUGAGCAUCA"}, "B5": {"name": "chr14:66974463:66974464:+_ENSMUSG00000022044_ENSMUST00000074523|mus_hu|mus_mus_mus_hu_False|28_108 (ssRNA)", "RNA": "GGGAGUUCUACAGUCCGACGAUCUUGUAGGAUGAUUUAUUCAGGGGAUCGGCCAGGAAGCAGGAGCAGAACAAGGACACCAGCGGGAGCUCCUUCAUCUUCUCUUUAUAGGCUGCAAGGGUCAUGUUUCUGGGAUCUGGUGGCCAACAGAGGAUUGAGCAUCA"}, "B6": {"name": "102296270_102296390_440_3pUTR_ENSG00000166135_ENST00000299163|human|control|control (ssRNA)", "RNA": "GGGAGUUCUACAGUCCGACGAUCCCUGCAGUUUCUCAACGAACUCAUGAAAUUUCAUUUCUUCCCUGUUGGACCUCGGCUUAAAGUUCUGGAAAUUGGCCAUCUUCUUCUCAUCAUAGUACAAGAACUUGUGGGUGCUGGCACCAACAGAGGAUUGAGCAUCA"}, "B7": {"name": "chr2:127629987:127629988:-_ENSMUSG00000027379_ENSMUST00000028858|mus_mus|FALSE|FALSE (ssRNA)", "RNA": "GGGAGUUCUACAGUCCGACGAUCACCAGAUGUUUCACAUUUUCCUGUAAAUACAGUUCCUUUAGGGAAAAGUUUCAUAUCUAUACUCUGACCCAGGUCAAUCAAUGCCAAGCCGGUAGCUAAGUCUUCAUCAGCCUGUUCCAACAACAGAGGAUUGAGCAUCA"}, "B8": {"name": "chr5:145557987:145557988:+_ENSMUSG00000045482_ENSMUST00000132925|mus_hu|FALSE|FALSE (ssRNA)", "RNA": "GGGAGUUCUACAGUCCGACGAUCCAGUUUCAAUGGCCUUCUCCAUGGGGAGCUGGAGAGAAGCUUUGCAGUCGGAAAACUCCACAGUGAUGCUGGGGCCCUGAACCUCGGUCACAACGUAGUGCAGCUUCUGCGACUCCUUCACAACAGAGGAUUGAGCAUCA"}, "B9": {"name": "88886798_88917630_1775_CDS_ENSMUSG00000053333_ENSMUST00000065694|mouse|control|control (ssRNA)", "RNA": "GGGAGUUCUACAGUCCGACGAUCAGUAAAAGCAAGCUUCAGCUGAUCUAAACGGAGUGCGCCAUCUACAAAGCGCUGGCGGCGGAGUUGCUUUGCAAUGCUGUGCAGGUUCAGGACUGCCUGGUGCACCUCCUCGACGCUGUGCAACAGAGGAUUGAGCAUCA"}, "B10": {"name": "chr11:107549074:107549075:+_ENSMUSG00000020721_ENSMUST00000106746|mus_mus|FALSE|FALSE (ssRNA)", "RNA": "GGGAGUUCUACAGUCCGACGAUCUAAUGAUAUCCCUCAAACAAGCAAUUAGAAAGAUCUUAGAAUUGCUCUGUGUAUGUAACAUCUUAGAAAGAUCUUAGAAUUGCUCUGUGUAGGUCACAUCAUCUUAACGUAAACAUCAAUCAACAGAGGAUUGAGCAUCA"}, "B11": {"name": "50803853_50803973_910_CDS_ENSG00000008196_ENST00000393655|human|control|control (ssRNA)", "RNA": "GGGAGUUCUACAGUCCGACGAUCGAGAGAUGCAUUGAGGCAUUCAGGGGGCGACAGCCGUCUCUGAACUUCUCCCACAGUUACUUUGUACUUCGAAGUUGAACUGAGCAGAGACAAACGGCCUGGGACGGAGCAAAACACCUCCAACAGAGGAUUGAGCAUCA"}, "B12": {"name": "chr5:173380165:173380166:+_ENSG00000113742_ENST00000334035|hu_mus|motif|central (ssRNA)", "RNA": "GGGAGUUCUACAGUCCGACGAUCCACCCGUUUAUCUAUCUCUCCAUGCUGCAGCUGAACAAAGCGGGCACUGAUAGCAGCGGUGUAACUCUGUUGAUUAGAAAACGCGACUCUUCCAGCUCCUUUUGGGUAUUUGAGCUCUGGCAACAGAGGAUUGAGCAUCA"}, "B13": {"name": "6958801_6958921_424_CDS_ENSG00000111665_ENST00000229265|human|control|control (ssRNA)", "RNA": "GGGAGUUCUACAGUCCGACGAUCCUGUCUUGCUUCCUCCUUGGAAAACACCUGUUUGGAGGGGAACUCAGUCUGGUUCCAAGGUGGCAUCUGUUCCUCAACAGAUAACUGGGUACCCAGAGGCAAGUCCAAUUCAGAAGAUAACAACAGAGGAUUGAGCAUCA"}, "B14": {"name": "chr12:16048344:16048345:+_ENSG00000023734_ENST00000419869|hu_hu|hu_hu_hu_mus_True|18_58 (ssRNA)", "RNA": "GGGAGUUCUACAGUCCGACGAUCAGAUCGUCCAUAAGUAAUAACCAAAAUCUCUCCUUCAGGAAUAUACUCCAUGCUACUAACAGACAUAUUAAAAUUCAGAGAUUUCACUUCUGUCAUAGUAGCAUGAUCCCAGAGCCGAACCAACAGAGGAUUGAGCAUCA"}, "B15": {"name": "chr11:87794696:87794697:-_ENSMUSG00000020483_ENSMUST00000020775|mus_mus|FALSE|FALSE (ssRNA)", "RNA": "GGGAGUUCUACAGUCCGACGAUCGGCCUUUUAUUUUUAUCUAGGGAGAGAAGAGAAAAGGAGGGGUAGGAGAGAUUUCCUAGUGCAGUACAACCAAAAAAAUAAUGUUAACGUCUUAAAAACAAACGCAAAGCAGCCUUCUUCCAACAGAGGAUUGAGCAUCA"}, "B16": {"name": "chr8:127197416:127197417:-_ENSMUSG00000037300_ENSMUST00000118134|mus_mus|FALSE|FALSE (ssRNA)", "RNA": "GGGAGUUCUACAGUCCGACGAUCUUUUGCUAUUUUGCUGAAGGCCUCUGAGCCAGGGGCUGUCAUGGCUUCAAAGUCGACUAACUGGAAAAGAGGAGGCGCAGGACGUGAUAAAAGGAAGGAAAUGGUGUGGGGUCUAGCUCGCAACAGAGGAUUGAGCAUCA"}, "B17": {"name": "chr3:32582686:32582687:-_ENSG00000144635_ENST00000273130|hu_mus|FALSE|FALSE (ssRNA)", "RNA": "GGGAGUUCUACAGUCCGACGAUCUCGCUGAGGGGAGGCUGGGAAGUCUUCUCCUGGCUCCACGUACUCUUGGAAGUCUCUAAUCAACUUCUGCUCCAUUUCCUUCAUCUCUUCAGGGGGGAUUUUCAGCUUGUCGACAUGUUCCAACAGAGGAUUGAGCAUCA"}, "B18": {"name": "47662921_47675070_133_3pUTR_ENSG00000124207_ENST00000262982|human|control|control (ssRNA)", "RNA": "GGGAGUUCUACAGUCCGACGAUCCAGGAUCAGGAUCAAGUGUUUUCUUUAAAUAUUCUGUUAGUGUUUGCAGAUUUGCAUCGCUGAGUUCCAUUGCUAUAGGAUCUCGUGGGGAUACAGAAACGGAGGAGGGAACCCCAGCCGCAACAGAGGAUUGAGCAUCA"}, "B19": {"name": "chr10:33190432:33190433:-_ENSG00000150093_ENST00000302278|hu_mus|hu_hu_hu_mus_True|78_98 (ssRNA)", "RNA": "GGGAGUUCUACAGUCCGACGAUCUACAUUUUCCAAACCUGCACAUGAAUAAAACCCUGGCAAUAUUGCCCCAAAACUACCCUACUGUGACUAAGAUGCUGCUGCUGUGAGCUUGGUGUUGCAAAAUCCGCCUGAGUAGGAUUCCAACAGAGGAUUGAGCAUCA"}, "B20": {"name": "chr3:95061978:95061979:-_ENSMUSG00000015711_ENSMUST00000015855|mus_mus|motif|central (ssRNA)", "RNA": "GGGAGUUCUACAGUCCGACGAUCUCGUUCCAGGAUGCCACAGAUUGUCAUUCGAAGUGCCUCGUGUGGACAGAAGAUAGCGGAUUGCCGUACUGGCUCAUUUUGAGUGUUGAAAAAGAUAGUCAUGGCAACCAGGGCAUCAUACAACAGAGGAUUGAGCAUCA"}, "B21": {"name": "42744061_42749184_606_CDS_ENSG00000103994_ENST00000263805|human|control|control (ssRNA)", "RNA": "GGGAGUUCUACAGUCCGACGAUCGUCUUGGUAAGGAAUUCGGUCUUCUCGUCUCCAUUGGGGUCGUCUGUCAUCAGAGUUUAUUUCUUGGUUGCUAUUGGAAGGUUCAUCUUGUCGACUUUGUUCUUUCCUUUGUUUUAUUAACAACAGAGGAUUGAGCAUCA"}, "B22": {"name": "chr6:83912004:83912005:+_ENSMUSG00000030016_ENSMUST00000032088|mus_mus|FALSE|FALSE (ssRNA)", "RNA": "GGGAGUUCUACAGUCCGACGAUCUAAGUUGUAAAUUUCUUCUGUAGAAUAUCCUUUGUUAGGCAAAUUAGAAAUAAAUACUACACUCAUUUCCUCCGAUUCCUUGUUCACUGGUUCCUUUUCUGUGGCCUCCAAAGUACCUGACAACAGAGGAUUGAGCAUCA"}},
  "note": "The list shows a part of the results.",
  "data": [
    {"biological_target": "T1, UNK ZnF1-3 (human, UniProt Q9C0B0 31-174)", "T1 sequence": "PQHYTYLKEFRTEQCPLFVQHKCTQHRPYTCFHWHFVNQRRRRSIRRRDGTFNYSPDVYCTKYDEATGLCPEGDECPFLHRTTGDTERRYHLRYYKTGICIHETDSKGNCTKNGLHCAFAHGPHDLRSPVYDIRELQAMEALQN", "experiment": "nsRBNS (natural sequence RNA bind-n-seq); RBNS binding buffer (assumed for nsRBNS): 25 mM Tris pH 7.5, 150 mM KCl, 3 mM MgCl2, 0.01% Triton X-100, 500 ug/ml BSA, 20 U/ml SUPERase-In, 4 C; UNK is unkempt and MSI1 is Musashi-1; names of the RNAs are library labels; protein concentration not given here; high values mean tight binding", "units": {"binding signal": "enrichment R"}, "values": [
      {"binder": "B1", "binding signal": 0.852},
      {"binder": "B2", "binding signal": 1.49},
      {"binder": "B3", "binding signal": 0.911},
      {"binder": "B4", "binding signal": 0.847},
      {"binder": "B5", "binding signal": 2.72},
      {"binder": "B6", "binding signal": 0.922},
      {"binder": "B7", "binding signal": 0.762},
      {"binder": "B8", "binding signal": 0.921},
      {"binder": "B9", "binding signal": 0.966},
      {"binder": "B10", "binding signal": 0.453},
      {"binder": "B11", "binding signal": 1.28},
      {"binder": "B12", "binding signal": 0.724},
      {"binder": "B13", "binding signal": 1.02},
      {"binder": "B14", "binding signal": 0.672},
      {"binder": "B15", "binding signal": 2.05},
      {"binder": "B16", "binding signal": 1.51},
      {"binder": "B17", "binding signal": 0.563},
      {"binder": "B18", "binding signal": 1.62},
      {"binder": "B19", "binding signal": 1.1},
      {"binder": "B20", "binding signal": 0.983},
      {"binder": "B21", "binding signal": 0.216},
      {"binder": "B22", "binding signal": 0.783}
    ]}
  ]
}
